Holding throughout (assay): co-IP; SUZ12 IPs from lysates of Suz12GT/GT ESCs stably expressing FLAG-tagged constructs; lysis in 300 mM NaCl, 0.5% NP-40, diluted 1:1 with no salt buffer; benzonase; Protein G Dynabeads; immunoblot
(In western blotting, separated proteins are transferred to a membrane and probed.)

Sequences of proteins named here, by UniProt entry; tags and fusion partners are left off. A change or cut given only in a name is not applied to a line headed by its entry. A line that says so, or that is headed by a name, gives the form on record, which may keep a tag or linker. Residues count along the entry.
UniProt Q86VZ6: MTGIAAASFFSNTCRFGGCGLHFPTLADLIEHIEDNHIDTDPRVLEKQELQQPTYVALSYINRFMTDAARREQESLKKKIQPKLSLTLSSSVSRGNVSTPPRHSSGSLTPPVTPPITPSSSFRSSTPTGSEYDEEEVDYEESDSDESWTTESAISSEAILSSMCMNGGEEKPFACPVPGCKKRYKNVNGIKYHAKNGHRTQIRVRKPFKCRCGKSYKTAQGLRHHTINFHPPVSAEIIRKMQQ
UniProt Q15022: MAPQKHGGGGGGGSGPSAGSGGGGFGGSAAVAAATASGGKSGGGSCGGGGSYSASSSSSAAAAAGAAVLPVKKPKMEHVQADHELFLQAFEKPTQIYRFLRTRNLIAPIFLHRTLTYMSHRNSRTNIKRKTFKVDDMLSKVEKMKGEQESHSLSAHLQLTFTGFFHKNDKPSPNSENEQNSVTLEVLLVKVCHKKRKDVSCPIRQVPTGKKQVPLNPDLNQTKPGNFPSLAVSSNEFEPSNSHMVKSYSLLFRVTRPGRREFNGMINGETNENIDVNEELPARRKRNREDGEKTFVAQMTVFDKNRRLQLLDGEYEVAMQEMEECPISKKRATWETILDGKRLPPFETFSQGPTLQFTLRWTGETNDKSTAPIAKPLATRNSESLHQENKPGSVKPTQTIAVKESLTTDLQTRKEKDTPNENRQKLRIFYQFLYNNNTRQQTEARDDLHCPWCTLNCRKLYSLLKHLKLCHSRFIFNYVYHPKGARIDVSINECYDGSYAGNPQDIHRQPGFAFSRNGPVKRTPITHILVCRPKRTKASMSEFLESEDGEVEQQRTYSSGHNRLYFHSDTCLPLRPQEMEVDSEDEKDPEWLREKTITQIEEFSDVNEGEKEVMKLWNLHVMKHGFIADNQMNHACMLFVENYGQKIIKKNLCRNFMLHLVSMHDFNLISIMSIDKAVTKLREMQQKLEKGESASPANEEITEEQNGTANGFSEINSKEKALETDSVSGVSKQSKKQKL
FLAG-tagged SUZ12Δ93: residues 94-739 of Q15022
UniProt Q61188: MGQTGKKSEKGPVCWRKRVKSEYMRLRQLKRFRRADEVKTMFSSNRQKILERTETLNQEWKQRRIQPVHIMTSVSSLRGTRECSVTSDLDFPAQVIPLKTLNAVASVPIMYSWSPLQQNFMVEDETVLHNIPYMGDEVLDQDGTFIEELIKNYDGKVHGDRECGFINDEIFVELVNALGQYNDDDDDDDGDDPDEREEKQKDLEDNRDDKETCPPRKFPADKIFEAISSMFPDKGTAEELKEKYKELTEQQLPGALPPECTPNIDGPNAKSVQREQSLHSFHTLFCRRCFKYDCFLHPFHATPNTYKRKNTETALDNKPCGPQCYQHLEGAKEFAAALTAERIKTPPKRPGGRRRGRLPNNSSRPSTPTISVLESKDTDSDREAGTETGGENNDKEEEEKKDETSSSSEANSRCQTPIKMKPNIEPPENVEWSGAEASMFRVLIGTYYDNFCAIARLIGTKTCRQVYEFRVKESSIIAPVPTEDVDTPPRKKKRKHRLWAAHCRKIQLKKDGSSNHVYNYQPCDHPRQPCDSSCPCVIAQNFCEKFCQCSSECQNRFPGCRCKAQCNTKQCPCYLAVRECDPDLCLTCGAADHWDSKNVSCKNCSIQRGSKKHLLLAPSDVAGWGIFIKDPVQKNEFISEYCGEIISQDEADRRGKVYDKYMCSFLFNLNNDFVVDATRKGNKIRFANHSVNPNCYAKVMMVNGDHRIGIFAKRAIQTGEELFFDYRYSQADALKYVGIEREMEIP
UniProt Q02395: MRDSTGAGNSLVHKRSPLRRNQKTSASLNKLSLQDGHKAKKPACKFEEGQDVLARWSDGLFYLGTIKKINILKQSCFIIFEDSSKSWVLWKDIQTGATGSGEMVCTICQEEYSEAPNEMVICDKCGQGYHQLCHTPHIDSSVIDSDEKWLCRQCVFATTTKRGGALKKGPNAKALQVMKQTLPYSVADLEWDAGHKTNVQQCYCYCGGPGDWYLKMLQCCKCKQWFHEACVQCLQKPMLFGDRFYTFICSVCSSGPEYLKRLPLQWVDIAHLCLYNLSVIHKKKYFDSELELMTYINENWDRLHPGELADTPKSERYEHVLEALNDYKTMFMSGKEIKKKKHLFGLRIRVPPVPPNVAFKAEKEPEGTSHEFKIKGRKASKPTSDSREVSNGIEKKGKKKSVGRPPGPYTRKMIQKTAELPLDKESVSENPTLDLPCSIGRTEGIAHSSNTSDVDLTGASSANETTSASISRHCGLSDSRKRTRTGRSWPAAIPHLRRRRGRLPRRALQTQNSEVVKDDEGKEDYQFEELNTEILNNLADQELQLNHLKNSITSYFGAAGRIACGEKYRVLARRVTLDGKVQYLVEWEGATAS

Test [1] concerns the target FLAG-tagged JAZF1-SUZ12 (UniProt Q86VZ6).
Test [2] concerns the target FLAG-tagged SUZ12Δ93 (human) (UniProt Q15022).
The target of test [3] is FLAG-tagged JAZF1-SUZ12 (UniProt Q86VZ6). This is another data set of the same source.
Test [4] concerns the target FLAG-tagged SUZ12 (human) (UniProt Q15022).
Test [5] has as its target FLAG-tagged SUZ12Δ93 (human) (UniProt Q15022). This is another data set of the same source.

The source of these data is publication PMC9637993.

Where two headings read alike, the source gives them in different places. No constants are given. Whether binding was seen depends on the method and setting. Binding seen in cells or lysates may run through a third protein. Some results given as binding are weak or reduced against the parent protein; the word gives no strength.

Regarding EZH2 (from UniProt Q61188 1-746), the binding entry in test [1] and in test [2] was “binds” in each case.

Regarding PCL2 (from UniProt Q02395 1-593), the binding result in test [1] and in test [2] was “binds” each time.

B1: EPOP (protein, UniProt Q7TNS8 1-369)
chain: METLCPPPRLAVPASPRGSPCSPTPLKPRRGTPEFSPLCLRALAFCALAKPRPSSLGLGPGELAPRTPVLLGPPASPCTGGWAADGLKHLGGQAGRPSDVSSPAREDADVAVCPGGGEEEEGGGGFPHFGAGSCAPPGRCPAPLRPQDSPTNPAWSPPRPARGLDAASSPPLEPGSPPPSPPAGLSPEPAPSEQPVPASEAPGGGDPAPTAPEAPALSPSTADAAPDPPRDLRQEHFNRLIRRSKLWCYAKGFALDTPSLRRGPERPAAKARGAAKKRRRPAPPPPSVQPRRPVPTLPTSSTFSLLDCFPCPPALVVEENGDLGPASSLRLQGDAKPPPAHPLWKWQMGGPAVPEPPGLKSWWVNLEEL
B1: the binding entry in test [3] is “no binding”; in test [4], “binds”; in test [5] it was “no binding”.

B2: JARID2 (protein, UniProt Q62315 1-1234)
chain: MSKERPKRNIIQKKYDDSDGIPWSEERVVRKVLYLSLKEFKNAQKRQHGEGLAGSLKAVNGLLGNAQAKALGPASEQSENEKDDASQVSSTSNDVSSSDFEEGPSRKRPRLQAQRKFAQSQPNSPSTTPVKIVEPLLPPPATQISDLSKRKPKTEDFLTFLCLRGSPALPNSMVYFGSSQDEEDVEEEDDETEDVKATTNNASSSCQSTPRKGKTHKHVHNGHVFNGSSRSAREKEPAHKHRSKEATPGKEKHSEPRADSRREQASGAQPTAASAAASSAKGLAANHQPPPSHRSAQDLRKQVSKVNGVTRMSSLGAGTNSAKKIREVRPSPSKTVKYTATVTKGTVTYTKAKRELVKETKPNHHKPSSAVNHTISGKTESSNAKTRKQVLSLGGASKSTGPAASGLKASSRLNPKSCTKEVGGRQLREGLRNSKRRLEEAQQVDKPQSPPKKMKGVAGNAEAPGKKASAASGEKSLLNGHVKKEVPERSLERNRPKRAAAGKNMLGKQAHGKTEGTPCENRSTSQPESSHKPHDPQGKPEKGSGKSGWAAMDEIPVLRPSAKEFHDPLIYIESVRAQVEKYGMCRVIPPPDWRPECKLNDEMRFVTQIQHIHKLGRRWGPNVQRLACIKKHLRSQGITMDELPLIGGCELDLACFFRLINEMGGMQQVTDLKKWNKLADMLRIPKTAQDRLAKLQEAYCQYLLSYDSLSPEEHRRLEKEVLMEKEILEKRKGPLEGHTESDHHKFHSLPRFEPKNGLVHGVTPRNGFRSKLKEVGRAPLKTGRRRLFAQEKEVVKEEEEDKGVLNDFHKCIYKGRSVSLTTFYRTARNIMNMCFSKEPAPAEIEQEYWRLVEEKDCHVAVHCGKVDTNTHGSGFPVGKSEPFSRHGWNLTVLPNNTGSILRHLGAVPGVTIPWLNIGMVFSTSCWSRDQNHLPYIDYLHTGADCIWYCIPAEEENKLEDVVHTLLQGNGTPGLQMLESNVMISPEVLCKKGIKVHRTVQQSGQFVVCFPGSFVSKVCCGYNVSETVHFATTQWTSMGFETAKEMKRRHIAKPFSMEKLLYQIAQAEAKKENGPTLSTISALLDELRDTELRQRRLLFEAGLHSSARYGSHDGNSTVADGKKKPRKWLQLETSERRCQICQHLCYLSMVVQENENVVFCLECALRHVEKQKSCRGLKLMYRYDEEQIISLVNQICGKVSGKHGGIENCLNKPTPKRGPRKRATVDVPPSRLPSS
For the molecule B2, the binding entry is given as “no binding” in test [3], “binds” in test [4] and “no binding” in test [5].

B3: AEBP2 (protein, UniProt Q9Z248 1-504)
chain: MAAALADMADLEELSRLSPLSPGSPGPAARGRAEPPEEEEEEDDEEAEAEAVAALLLNGGAGGGAGGGEAETMSEPSPESASQAGGDEDEDEEDDEDEGSSSGGAEEESSAESLVGSSSGGCSGDETRSLSPGAASSSSGDGDGKEGLEEPKGPRGGPGGPGSSGGGSSSSSVVSSGGDEGYGTGGGGSSATSGGRRGSLEMSSDGEPLSRMDSEDSISSTLMDIDSTISSGRSTPAMMNGQGSTTASSKHIAYNCCWDQCQACFNSSPDLADHIRSIHVDGQRGGVFVCLWKGCKVYNTPSTSQSWLQRHMLTHSGDKPFKCVVGGCNASFASQGGLARHVPTHFSQQNSSKVSSQPKAKEESPSKAGMNKRRKLKNKRRRSLPRPHDFFDAQTLDAIRHRAICFNLSAHIESLGKGHSVVFHSTVIAKRKEESGKIKLLLHWMPEDILPDVWVNESERHQLKTKVVHLSKLPKDTALLLDPNIYRTMPQKRLKRFDILNFPR
Turning to B3, the binding entry in test [3] and in test [5] was “binds” each time.
